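Tested at 5 concentrations; 48 h exposure; 96-well plates; endpoints linearly interpolated, else capped at highest concentration. GI50 is the concentration that inhibits growth by half. TGI: concentration producing complete growth inhibition.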 A value given as a limit tells only on which side of the number the result lay.

In the assay the test system is NCI-H322M lung. Description: inhibition of tumour cell growth, NCI panel, 48 h.
As for `CN1CCN(c2ccc(Nc3nc(NCCCNS(=O)(=O)c4ccc(Cl)cc4)c4sccc4n3)cc2)CC1`, the GI50 was 10.3 µM and the TGI stood at 22 µM.

For the molecule `O=C(O)c1ccc(-n2c(=O)n(-c3cccc(C(F)(F)F)c3)c(=O)c3cc(-c4ccc(F)cc4F)ccc32)cc1`, the GI50 is 2.96 µM and the TGI worked out at 17.6 µM.

With `COc1cc(OC)c(S(N)(=O)=O)cc1C(=O)/C=C/c1ccc(Cl)cc1`, the GI50 was 2.31 µM and the TGI worked out at 10.8 µM.

In the case of `COc1cc2c3c(n(CCCN4CCC[C@H]4C(N)=O)c(=O)c2cc1OC)-c1cc2c(cc1C3=O)OCO2`, the GI50 is 0.329 µM and the TGI is greater than 100 µM.

The values above are taken from PubChem BioAssay (NCI).
